Experimental data from article PMC4336329 (PLoS ONE, 2015).
The campaign covered roughly 310,000 compounds. About 2,200 (0.71%) showed an effect of 50% or more. The effect is printed as a negative number. Some of the results follow.

Each compound was assayed against human ether-à-go-go-related gene (hERG) potassium channel (human, UniProt Q12809) (assay: primary screen, population patch clamp on CHO cells stably expressing hERG).
Chain of human ether-à-go-go-related gene (hERG) potassium channel (Q12809 whole entry, looked up): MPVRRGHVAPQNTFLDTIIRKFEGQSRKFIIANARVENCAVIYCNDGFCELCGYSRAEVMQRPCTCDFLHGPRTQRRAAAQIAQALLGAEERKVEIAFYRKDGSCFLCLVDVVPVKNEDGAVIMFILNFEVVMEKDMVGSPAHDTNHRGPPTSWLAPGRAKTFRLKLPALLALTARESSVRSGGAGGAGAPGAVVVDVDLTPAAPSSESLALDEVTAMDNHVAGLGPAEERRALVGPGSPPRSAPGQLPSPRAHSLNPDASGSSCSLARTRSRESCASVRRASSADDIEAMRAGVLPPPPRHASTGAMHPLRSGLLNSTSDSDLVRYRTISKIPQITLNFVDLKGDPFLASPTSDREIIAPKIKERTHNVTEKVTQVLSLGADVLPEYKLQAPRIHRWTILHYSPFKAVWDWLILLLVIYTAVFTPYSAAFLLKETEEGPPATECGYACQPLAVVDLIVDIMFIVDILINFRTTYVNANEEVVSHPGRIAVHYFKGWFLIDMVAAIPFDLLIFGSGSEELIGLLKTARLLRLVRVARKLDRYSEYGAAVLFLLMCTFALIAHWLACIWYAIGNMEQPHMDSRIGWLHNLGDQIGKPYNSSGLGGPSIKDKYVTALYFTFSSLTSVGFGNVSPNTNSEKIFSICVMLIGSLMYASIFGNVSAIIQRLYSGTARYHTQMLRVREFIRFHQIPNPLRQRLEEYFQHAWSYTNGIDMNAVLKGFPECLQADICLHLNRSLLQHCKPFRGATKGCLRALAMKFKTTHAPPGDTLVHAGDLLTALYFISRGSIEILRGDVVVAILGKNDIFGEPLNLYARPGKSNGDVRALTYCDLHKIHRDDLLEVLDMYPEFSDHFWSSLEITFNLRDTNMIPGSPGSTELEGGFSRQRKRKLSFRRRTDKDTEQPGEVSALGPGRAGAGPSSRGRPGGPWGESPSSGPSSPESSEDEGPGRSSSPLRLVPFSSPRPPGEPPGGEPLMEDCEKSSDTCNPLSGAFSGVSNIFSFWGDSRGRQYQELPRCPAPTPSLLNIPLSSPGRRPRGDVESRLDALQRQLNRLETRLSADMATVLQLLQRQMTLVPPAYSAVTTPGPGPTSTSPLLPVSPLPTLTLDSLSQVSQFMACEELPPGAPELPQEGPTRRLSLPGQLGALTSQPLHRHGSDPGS

SMILES	hERG current change (%, negative = inhibition) at 1uM [%]
Cc1nn(Cc2ccc(Cl)cc2)c(C)c1NC(=O)c1c(-c2ccccc2)noc1C	-15.7
CCCCOc1ccc(C(=O)Nc2ccncc2)cc1	21.2
CCOC(=O)C[C@H]1c2ccccc2S(=O)(=O)N1Cc1cc(OC)c(OC)c(OC)c1	10.8
Cn1c(=O)oc2cc(S(=O)(=O)Nc3ccc(Cl)cc3F)ccc21	1.45
CC(C)(C)c1cc(CP(=O)(c2ccccc2)c2ccccc2)cc(C(C)(C)C)c1O	18.7
Cc1c(Nc2cc(N3CCCC(C)C3)c3nonc3c2[N+](=O)[O-])c(=O)n(-c2ccccc2)n1C (stereo not shown)	-4.1
CCN(c1cccc(C)c1)S(=O)(=O)c1cnc[nH]1	8.01
O=C(COc1ncnc2ccccc12)N1CCN(S(=O)(=O)c2ccc(Cl)cc2)CC1	0.332
O=C(CNC(=O)c1ccc(Cl)cc1Cl)NCCCn1ccnc1	12.5
COc1cccc(-c2nc(CS(=O)CC(=O)NC3CCCCC3)c(C)o2)c1 (stereo not shown)	0.932
O=C1N=c2ccccc2=C1c1sc(=S)n(-c2ccc(O)cc2)c1O	18.5
CCS(=O)(=O)NCCCCc1ccccc1	-1.33
COc1ccccc1CN1CC(C(=O)NCCc2cn[nH]c2)CCC1=O (stereo not shown)	12.6
CC(C)Cn1cc(C(=O)NCCCOC(C)C)c2c3ccccc3n(C)c2c1=O	9.78
O=C(N/N=C/c1c(O)n(CCc2ccc(F)cc2)c(=O)[nH]c1=O)c1ccccc1	9.78
CC(C)[C@@H]1CC[C@@H](C)c2c(-c3ccccc3)n[nH]c21	22.6
COc1cc(/C=C2\C(=N)N3N=C(S(C)(=O)=O)SC3=NC2=O)cc(OC)c1OCCOc1ccc(C)cc1	11.2
CC(C)[C@H](NC(=O)C1CCN(S(=O)(=O)c2ccccc2)CC1)C(=O)NCc1ccccn1	16.4
CCCCCCn1c(CN2CCCCC2CC)nc2c1c(=O)n(C)c(=O)n2C (stereo not shown)	-19.9
Cc1cc(=O)n2c(c1C#N)SC1CCCCC12O (stereo not shown)	10.4
Cc1noc(NS(=O)(=O)c2ccc(NC(=O)CSc3nc4ccccc4[nH]3)cc2)c1C	-2.29
Cc1onc(-c2ccccc2)c1-c1nc2ccccc2c(=O)o1	19.4

SMILES	hERG current change (%, negative = inhibition) at 1uM [%]
O=C(NC(=S)NCC1CCCO1)c1ccco1 (stereo not shown)	10.7
COC(=O)C1=C(c2ccc(F)cc2OCc2ccccc2)C[C@@H]2CC[C@H]1N2C(=O)NCc1cccc(OC)c1	15.8
CC(OC(=O)c1cc2sccc2n1C)C(=O)NCc1ccc(F)cc1 (stereo not shown)	3.5
Cc1ccccc1-n1ncc2c1CC(C)(C)CC2NC(=O)CCC1=NNC(=O)CC1 (stereo not shown)	-15.2
CC1CCCCN1CC(=O)Nc1ccccc1Sc1ccccc1 (stereo not shown)	13.2
CN1CCN(C(=O)CC2(CC(=O)O)CCCC2)CC1.Cl	9.63
COc1cccc(-n2nnc3c(=O)n(Cc4c(F)cccc4Cl)cnc32)c1	3.26
CCSc1nnc(NC(=O)CC(C)C)s1	10.6
Cl.Nc1ccc2nc(C3CCCCC3)[nH]c2c1	11.5
CC1(C)Cc2c(c(N3CCOCC3)nc3sc(C#N)c(N)c23)CS1	7.2
C=CCNC(=O)CN1CCC(n2c(C)nc3cc(C(F)(F)F)ccc32)CC1	-31.9
COc1ccc(OC)c(NC(=S)N(CCc2c(C)[nH]c3ccc(C)cc23)Cc2cccs2)c1	7.13
O=C1CCc2cc(S(=O)(=O)NCCCC(=O)N3CCN(Cc4ccc5c(c4)OCO5)CC3)ccc2N1	4.53
COc1cc(C)nc(NS(=O)(=O)c2ccc(C)cc2)n1	10.4
CC(=O)C1=C(C)OC(N)=C(C#N)C1c1cc2cccc(C)c2nc1Cl (stereo not shown)	10.7
Cc1cc(N2C(=O)C(O)=C(C(=O)c3ccco3)C2c2ccc(Cl)cc2)no1 (stereo not shown)	-1.94
O=C(O)Cn1nnnc1SCC(=O)Nc1ccccc1F	11.2
COc1cccc(CNC(=O)CCn2c(=O)c3cccn3c3cccnc32)c1	11.9
CCOc1ccc(Cn2c(SCCCCC#N)nc3c2c(=O)n(C)c(=O)n3C)cc1OCC	-7
COc1ccc(NC(=O)CSc2nc3c(c(=O)[nH]2)CCC3)cc1OC	6.14
O=C(N/C=N/OCc1cccc(C(F)(F)F)c1)N1OC[C@@H]2COc3ccc4ccccc4c3[C@@H]21	18
